Experiment [1] has as its target Myc-tagged IRF8 residues 279-426 (human) (UniProt Q02556). In words: co-IP; HEK-293 co-transfected with Myc-tagged IRF8 truncated mutants and Flag-tagged EBNA3C; harvested 36 h after transfection; IP with 1 µg anti-Flag or anti-Myc antibody (which one is not told), blot with anti-Myc and anti-Flag.
Experiment [2] addresses T1, GST-IRF4 fusion protein (human) (UniProt Q15306).
T1 sequence: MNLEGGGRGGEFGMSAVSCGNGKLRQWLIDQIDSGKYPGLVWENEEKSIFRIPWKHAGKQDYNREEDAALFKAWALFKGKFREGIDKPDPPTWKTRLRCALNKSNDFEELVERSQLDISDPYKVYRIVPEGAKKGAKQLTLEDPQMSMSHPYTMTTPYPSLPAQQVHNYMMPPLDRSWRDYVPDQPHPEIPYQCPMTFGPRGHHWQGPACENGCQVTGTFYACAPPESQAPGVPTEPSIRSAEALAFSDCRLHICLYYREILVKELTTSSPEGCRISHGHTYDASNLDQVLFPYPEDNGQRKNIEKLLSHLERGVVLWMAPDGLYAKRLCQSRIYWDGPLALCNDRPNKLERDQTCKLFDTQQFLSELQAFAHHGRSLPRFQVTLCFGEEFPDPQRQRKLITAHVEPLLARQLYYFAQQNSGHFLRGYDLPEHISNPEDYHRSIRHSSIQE
Kind of experiment: pull-down; only the target purified.

The target of experiment [3] is T2, GST-IRF8 fusion protein (human) (UniProt Q02556).
T2 sequence: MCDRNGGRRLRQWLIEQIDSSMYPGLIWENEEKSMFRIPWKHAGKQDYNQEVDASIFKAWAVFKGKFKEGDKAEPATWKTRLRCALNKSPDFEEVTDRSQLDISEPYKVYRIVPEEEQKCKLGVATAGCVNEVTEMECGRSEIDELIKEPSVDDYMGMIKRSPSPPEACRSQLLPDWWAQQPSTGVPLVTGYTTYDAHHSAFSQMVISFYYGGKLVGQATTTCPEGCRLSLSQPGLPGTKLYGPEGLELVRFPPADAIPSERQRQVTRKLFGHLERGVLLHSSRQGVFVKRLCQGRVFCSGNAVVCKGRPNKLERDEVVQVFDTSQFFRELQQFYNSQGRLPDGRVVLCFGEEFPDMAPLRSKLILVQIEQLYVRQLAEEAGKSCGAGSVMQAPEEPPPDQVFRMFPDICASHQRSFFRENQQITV
In words: pull-down; only the target purified.

For experiment [4], the target named is Flag-tagged IRF4 residues 246-451 (human) (UniProt Q15306). In words: co-IP.
The target in experiment [5] is T3, Flag-tagged IRF8 (human) (UniProt Q02556).
T3 sequence: T2 sequence
In words: co-IP.

In experiment [6] the target is T4, Flag-tagged full length IRF4 (residues 1-451) (human) (UniProt Q15306).
T4 sequence: T1 sequence
In words: co-IP.

Experiment [7] deals with T1, GST-IRF4 fusion protein (human). In words: pull-down; S35-radiolabeled in vitro translated EBNA3C (T7-TNT kit), pre-cleared with GST beads, incubated with GST control, GST-IRF4 or GST-IRF8 beads; washed with Binding Buffer; phosphoimager; only the target purified.
Experiment [8] concerns the target T2, GST-IRF8 fusion protein (human). The experiment is described as above.
Experiment [9] has as its target EBNA3C expressed in EBV-transformed lymphoblastoid cell lines LCL1 and LCL2 (Epstein-Barr virus) (UniProt P03204). Kind of experiment: co-IP; lysates of BJAB, BJAB7, BJAB10, LCL1, LCL2; IP with A10 (EBNA3C), IRF4 or IRF8 specific antibodies; endogenous EBNA3C, IRF4, IRF8 detected by blot.
The target in experiment [10] is EBNA3C stably expressed in BJAB cells (BJAB7, BJAB10) (Epstein-Barr virus) (UniProt P03204). The description is as above.
In experiment [11] the target is Wild type GST-EBNA3C (residues 130-159) (Epstein-Barr virus (strain B95-8)) (UniProt P03204). In words: pull-down; S35-radiolabeled in vitro translated Flag-IRF4 or IRF8 incubated with GST control or GST-EBNA3C (truncated, wild type 130-159 or point mutant) beads; phosphoimager, relative binding units; only the target purified.
The target in experiment [12] is GST-EBNA3C residues 130-190 (Epstein-Barr virus (strain B95-8)) (UniProt P03204). Described as above.
The target in experiment [13] is Myc-tagged EBNA3C residues 1-365 (Epstein-Barr virus (strain B95-8)) (UniProt P03204). Kind of experiment: co-IP; HEK-293 co-transfected with full length or truncated Myc-EBNA3C and Flag-IRF4 or Flag-IRF8; harvested 36 h after transfection; IP with 1 µg anti-Myc antibody, blot with anti-Myc and anti-Flag.
Experiment [14] has as its target Myc-tagged EBNA3C residues 366-620 (Epstein-Barr virus (strain B95-8)) (UniProt P03204). The description is as above.
Experiment [15] has as its target Myc-tagged EBNA3C residues 621-992 (Epstein-Barr virus (strain B95-8)) (UniProt P03204). Described as above.
Experiment [16] deals with Myc-tagged full length EBNA3C (residues 1-992) (Epstein-Barr virus (strain B95-8)) (UniProt P03204). Described as above.

Results are given in words; binding and its absence hold for the method and conditions named. Binding seen in cells or lysates may run through a third protein. Some entries that bind do so weakly or less than the wild type. For some assays here: Tags and fused reporters may be left off the sequences shown.

On to “Flag-tagged EBNA3C (from UniProt P03204 1-992)”, for which, in experiment [1], the binding result is “binds”.
“EBNA3C expressed in EBV-transformed lymphoblastoid cell lines LCL1 and LCL2 (from UniProt P03204 1-992)”: the binding entry in experiment [2] and in experiment [3] was “binds” each time.
As for “Myc-tagged full length EBNA3C (residues 1-992) (from UniProt P03204 1-992)”, the binding result in experiment [4], in experiment [5] and in experiment [6] was “binds” in each case.
As for “EBNA3C stably expressed in BJAB cells (BJAB7, BJAB10) (from UniProt P03204 1-992)”, the binding result in [2] and in experiment [3] was “binds” in each case.
For “in vitro translated EBNA3C residues 1-365 (from UniProt P03204 1-365) (domain or fragment)”, the binding entry in experiment [7] and in experiment [8] was “binds” in each case.

B1: endogenous IRF4 (protein, UniProt Q15306 1-451)
chain: T1 sequence
On to B1, for which the binding result in experiment [9] and in [10] was “binds” in each case.

B2: in vitro translated Flag-IRF4 (protein, UniProt Q15306 1-451)
chain: T1 sequence
modifications: S35-radiolabeled
Take B2: the binding entry in experiment [11] and in experiment [12] was “binds” each time.

B3: Flag-tagged full length IRF4 (residues 1-451) (protein, UniProt Q15306 1-451)
chain: T1 sequence
For B3, the binding entry in experiment [13] is recorded as “binds”; in experiment [14], “no binding”; in [15], “no binding”; in experiment [16] it was “binds”.

B4: endogenous IRF8 (protein, UniProt Q02556 1-426)
chain: T2 sequence
Consider B4, for which the binding result in experiment [9] and in [10] was “binds” throughout.

B5: in vitro translated Flag-IRF8 (protein, UniProt Q02556 1-426)
chain: T2 sequence
modifications: S35-radiolabeled
On to B5, for which the binding entry in [11] and in experiment [12] was “binds” in each case.

B6: Flag-tagged IRF8 (protein, UniProt Q02556 1-426)
chain: T2 sequence
For the molecule B6, the binding entry is on record as “binds” in experiment [13], “no binding” in [14], “no binding” in [15] and “binds” in experiment [16].

The values above are taken from paper PMC3642079.
